The supplement of paper PMC11417369
± gives the standard deviation of the averaged measurements. Some of the results follow.

tested on: PfAP2-LT AP2 domain (GST-tagged); test: gcPBM binding intensity (ln(normalized median fluorescence intensity)); higher = stronger DNA binding
Method in brief: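 DNA-binding domains from P. falciparum, fused to GST and produced in E. coli, were put on an Agilent 4 × 180k double-stranded probe array for 1 h in 1× PBS holding 1% milk, 0.2 mg/ml BSA, 0.5% salmon testes DNA and 0.03% Triton X-100. Probes were primer-extended, 36 bp long and drawn from intergenic genomic regions, with negative controls included. After Alexa488 anti-GST antibody detection and a 488 nm scan, binding intensity was set as the highest Masliner-normalised natural-log median intensity across replicate spots of either probe orientation.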

Sequence | gcPBM binding intensity (ln)
ATTTCCCACTTGTGTGTGCGCATGTGTATATATTTA [GTGCAC_site9949] | 9.74 ± 0.3
TTATTTGTTTGTTGGATGCTTTTTTTTTTTTTTTTT [CACACA_negctrl_site1697] | 8.72 ± 0.49
TACATATATATAATATGTACTTATAATATGTATTTA [XGTACX_site2162] | 8.54 ± 0.4
AAAAGTGATAATAAGAGTACATAAAAAATTTATTAT [XGTACX_site8037] | 8.79 ± 0.47
TATTCTATACTATATTGTACTATAATATAATATACT [XGTACX_site797] | 8.82 ± 0.46
AAATAATTTATAAATAAATACATTGTTACTTTTTCT [GTGCAC_negctrl_site639] | 8.51 ± 0.45
ATTCAAAAAAATAAAATAAACATAAATAAACATAAA [TGCATGCA_negctrl_site390] | 8.62 ± 0.59
ATTTTTTTTTTTTTATGTACATATTAAAAAAAATAT [XGTACX_site1829] | 8.51 ± 0.41
GGTATTACTTTTAGCTGTACTTATTTAAAAGTCAAA [XGTACX_site530] | 8.58 ± 0.49
ATTTTTACTTTTTATGCATGCTATATTTTCAACCAT [TGCATGCA_site871] | 9.16 ± 0.4
TATACATGTTCAATTTGTACATATATAAATATATAT [XGTACX_site3554] | 8.72 ± 0.41
ATTAAGGAAAAATTATGTACACAAAAACATATAACA [XGTACX_site2901] | 8.98 ± 0.42
TCTGAAATTTTAGGGGTGCCTGGGACTAAAGAAACG [GTGCAC_site9785] | 8.44 ± 0.35
AAGAACAGATAAAATCGTACGTGAAACATGAACTTG [XGTACX_site7793] | 9.03 ± 0.48
TAGAAACCATAAAAATGTACTTAAAAATAGACAATT [XGTACX_site5007] | 8.78 ± 0.5
ATAAATTCATTATATTGTACAAACAAATGAAAAAAA [XGTACX_site8304] | 8.66 ± 0.54
TTTAATTCCCATATATGTACACAATTTCTTCTATAA [XGTACX_site1465] | 8.65 ± 0.58
AGACTTTTTATGAGCACACACATATATTATGGAGTA [CACACA_site1040] | 9.09 ± 0.33
ATACATAAATATTATTGTACATATATAATATTAATA [XGTACX_site3514] | 8.64 ± 0.31
GGAAAAAGAAATTAATGTACATGTGGATGTATGAGG [XGTACX_site5468] | 9.02 ± 0.48
AAAATTCATCCAACAAGTACATAAATATAATATTAT [XGTACX_site4596] | 8.79 ± 0.45
AAAATATTTAAGCATTGTACATATTTTTACAAATAC [XGTACX_site5349] | 8.68 ± 0.36
AGGTAGAAAAAAGACACACACATTATGTATATATAT [CACACA_site377] | 9.53 ± 0.38

Sequence | gcPBM binding intensity (ln)
TTATAGGATCAAGCGCGTACATATCTTTATAAAAGA [XGTACX_site5775] | 8.78 ± 0.39
ATATATATATATGTGTGTACATATATGTGGATGGAT [XGTACX_site6240] | 9.64 ± 0.2
AATAACAAAATATTAACACACATAACATATTATAAA [CACACA_site2803] | 8.97 ± 0.43
TTTTTTCATATAAATACATGCACACAAAAATATCAA [TGCATGCA_site602] | 8.74 ± 0.4
TAATGTTTTTTTTGTTTACCAAAAATAATACATTAT [CACACA_negctrl_site203] | 8.36 ± 0.38
ATATACAAATATATATATATATATATATATATATAT [CACACA_negctrl_site886] | 9.77 ± 0.042
GCAAATATGTTGATATGTACATATATATATATATAT [XGTACX_site445] | 9.73 ± 0.057
TATTTCTTTATTGGCACACATTTTTTCAATTATATA [CACACA_site4975] | 9.05 ± 0.39
ATTATTTTAATAAAACGTACAAAATATAAATCAAAA [XGTACX_site3770] | 8.62 ± 0.5
AAAAAATATACATATACACACATATGTATATATAAT [CACACA_site8676] | 9.02 ± 0.36
AGTTTATAGTGATATTGTACATATATATATATATAT [XGTACX_site572] | 9.52 ± 0.057
TTATTTTTGTTTTGAAGTACAAAAAAATATATTCTT [XGTACX_site6416] | 8.24 ± 0.3
AAAATTTATATAAGCACACAAATATATATTTATATC [CACACA_site3291] | 8.74 ± 0.38
TATTTATACTCAACTTTCTGTTATTCCAACTTTTTT [XGTACX_negctrl_site410] | 8.81 ± 0.52
TTATATATTAATAGTAGTACTATATTGAATCACCCC [XGTACX_site2868] | 8.88 ± 0.12
ACAACAAAAATAAGCACACACAAATATACATACATA [CACACA_site7664] | 9.71 ± 0.49
TTTTAAATCTTATATTCCCCACATAAATAGCTCTCT [GTGCAC_negctrl_site665] | 8.51 ± 0.54
ACATAAGAACATATTTGTACGTATATAAATTAAATA [XGTACX_site6127] | 8.8 ± 0.45
ATGGACAAAAAATATATACACACGAGGAAACCAACA [CACACA_site3726] | 9.41 ± 0.34
CGTGGGAGCAGACACACACACACACGCATATTTATA [CACACA_site6290] | 9.89 ± 0.45
TTTTGTTTTTACGAATACTTTTTTAATTTTATTTAT [TGCATGCA_negctrl_site395] | 8.59 ± 0.51
CATGCATACTACATCTGTACACATACATTATATTTA [XGTACX_site2495] | 9.06 ± 0.35
